PubChem BioAssay AID588342 (National Center for Advancing Translational Sciences (NCATS), 2011)
The whole screen tested about 360,000 compounds, of which about 25,000 (6.9%) were called active. The shares of active, inactive and inconclusive entries below differ from those in the screen. Calls come from the whole dose curve; as a rule, active = well fitted inhibition curve with a large enough effect; inconclusive = small, poorly fitted or top-dose-only effect; inactive = flat fitted curve, though single readings scatter. Potencies of inconclusive entries are doubtful fits and often do not repeat.

molecular target: Luciferin 4-monooxygenase (Photinus pyralis) (UniProt P08659); test: qHTS profiling assay for firefly luciferase inhibitor/activator using purifed enzyme and Km concentrations of substrates (counterscreen for miR-21 project); conditions: purified FLuc, luminescence inhibition; series mostly up to 57.5 µM; activity change, negative = inhibition: at the top concentration; note: nearly all actives have a fitted effect of over 55% in size;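 for activity change, negative = inhibition: plate controls were vehicle for no effect and reference inhibitor for full effect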
UniProt P08659, sequence (P08659 whole entry, looked up): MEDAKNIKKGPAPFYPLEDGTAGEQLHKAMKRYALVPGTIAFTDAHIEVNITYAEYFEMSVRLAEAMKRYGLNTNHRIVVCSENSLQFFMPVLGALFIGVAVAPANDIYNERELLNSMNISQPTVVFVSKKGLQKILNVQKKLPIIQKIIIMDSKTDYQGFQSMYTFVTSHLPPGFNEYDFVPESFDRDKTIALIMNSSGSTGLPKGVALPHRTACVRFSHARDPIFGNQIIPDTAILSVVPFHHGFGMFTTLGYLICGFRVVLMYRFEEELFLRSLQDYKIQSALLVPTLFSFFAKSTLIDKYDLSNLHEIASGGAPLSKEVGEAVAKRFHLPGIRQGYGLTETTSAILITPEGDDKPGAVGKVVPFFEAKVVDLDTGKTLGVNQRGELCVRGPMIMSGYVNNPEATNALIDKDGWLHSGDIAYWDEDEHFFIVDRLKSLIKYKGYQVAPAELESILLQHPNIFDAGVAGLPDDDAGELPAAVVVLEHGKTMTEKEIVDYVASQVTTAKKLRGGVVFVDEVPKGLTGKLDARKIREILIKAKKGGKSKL
Outline: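 Purified P. pyralis luciferase, 10 nM final, with Km-level 10 uM D-luciferin and 10 uM ATP in 50 mM Tris acetate pH 7.5, 10 mM Mg acetate, 0.01% Tween-20, 0.05% BSA; 6-point qHTS titration about 60 µM downward; luminescence read.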
Potency is the fitted concentration of half-maximal effect; tags give direction and shape of the fitted curve.

Compound	Potency	activity change, negative = inhibition
O=C1c2ccccc2S(=O)(=O)N1CC1CC(c2ccc(Cl)cc2)=NO1 (stereo not given)	active: 2.39 µM	–
Cc1ccc(NC(=O)c2cc(NC(=O)CCCC(=O)O)ccc2Cl)cc1Cl	inconclusive: 23.9 µM [inhibitor, single point]	–
CCOc1ccc(-c2oc3ccccc3c(=O)c2O)cc1OCC	inconclusive: 26.9 µM [inhibitor, partial curve]	–
Cc1ccsc1/C=N/NC(=O)c1ccc2ccccc2c1	inconclusive: 3.01 µM [inhibitor, full curve]	–
COc1cc2c(cc1OC)-c1cc(NC3CCCCCC3)nc(=O)n1CC2	inconclusive: 37.9 µM [inhibitor, partial curve, poor fit]	–
COc1ccccc1C(=O)NC1CCCCCCC1	inconclusive: 23.9 µM [inhibitor, single point]	–
CCCOc1cccc(OCCSc2nc(C)cc(=O)[nH]2)c1	inconclusive: 33.8 µM [inhibitor, single point]	–
CCS(=O)(=O)n1nc(-c2ccc(OC)cc2)nc1SC	inconclusive: 23.9 µM [inhibitor, single point]	–
c1ccc(Sc2ncnc3ccccc23)cc1	active: 19 µM	–
COc1ccc(Cl)cc1NC(=O)CSc1nnc(-c2ccncc2)n1CC1CCCO1 (stereo not given)	–	inactive: 1.58%
O=C(NCc1ccc2c(c1)CCN2C(=O)c1ccc(F)cc1)c1ccc(Br)o1	inconclusive: 37.9 µM [inhibitor, partial curve, poor fit]	–
COc1cccc(/C=N/n2c(-c3ccco3)nc3ccccc3c2=O)c1	active: 13.5 µM	–
COc1cc(OC)cc(C(=O)Nc2cc3nn(-c4ccccc4)nc3cc2Cl)c1	active: 5.36 µM	–
Cc1ccc2nc(N/C(=N/S(=O)(=O)c3ccc(F)cc3)c3ccccc3)sc2c1	active: 8.49 µM	–
CCCCOc1ccc(CN2CCSCC2)cc1	inconclusive: 26.9 µM [inhibitor, partial curve]	–
CCOC(=O)c1ccc(CN(Cc2ccccc2)S(=O)(=O)c2ccc(C)cc2)cc1	–	inactive: -14.9%
COc1ccc(C(=O)NCc2nnc(SCC(=O)Nc3cccc(F)c3)o2)cc1	inconclusive: 37.9 µM [inhibitor, single point]	–
C=CCNC(=O)c1ccc(-c2cccc([N+](=O)[O-])c2)o1	inconclusive: 16.9 µM [inhibitor, partial curve, poor fit]	–
COc1ccc2oc(=O)cc(CN3CCN(c4ccc(F)cc4)CC3)c2c1	–	inactive: -8.38%
O=[N+]([O-])c1cccc(/C=N\N=C2c3ccccc3-c3ccccc32)c1O	inconclusive: 21.3 µM [inhibitor, single point]	–
